Source: article PMC4336329 (PLoS ONE, 2015)
The campaign covered roughly 310,000 compounds. About 14,000 (4.5%) showed an effect of 50% or more. Effects have a minus sign here. This is one part of the list.

Each molecule was assayed against human ether-à-go-go-related gene (hERG) potassium channel (human, UniProt Q12809) (assay: primary screen, population patch clamp on CHO cells stably expressing hERG).
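Note: peak tail current of the secondary pulse compared with the same well before compound.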

Chain of human ether-à-go-go-related gene (hERG) potassium channel (Q12809 whole entry, looked up): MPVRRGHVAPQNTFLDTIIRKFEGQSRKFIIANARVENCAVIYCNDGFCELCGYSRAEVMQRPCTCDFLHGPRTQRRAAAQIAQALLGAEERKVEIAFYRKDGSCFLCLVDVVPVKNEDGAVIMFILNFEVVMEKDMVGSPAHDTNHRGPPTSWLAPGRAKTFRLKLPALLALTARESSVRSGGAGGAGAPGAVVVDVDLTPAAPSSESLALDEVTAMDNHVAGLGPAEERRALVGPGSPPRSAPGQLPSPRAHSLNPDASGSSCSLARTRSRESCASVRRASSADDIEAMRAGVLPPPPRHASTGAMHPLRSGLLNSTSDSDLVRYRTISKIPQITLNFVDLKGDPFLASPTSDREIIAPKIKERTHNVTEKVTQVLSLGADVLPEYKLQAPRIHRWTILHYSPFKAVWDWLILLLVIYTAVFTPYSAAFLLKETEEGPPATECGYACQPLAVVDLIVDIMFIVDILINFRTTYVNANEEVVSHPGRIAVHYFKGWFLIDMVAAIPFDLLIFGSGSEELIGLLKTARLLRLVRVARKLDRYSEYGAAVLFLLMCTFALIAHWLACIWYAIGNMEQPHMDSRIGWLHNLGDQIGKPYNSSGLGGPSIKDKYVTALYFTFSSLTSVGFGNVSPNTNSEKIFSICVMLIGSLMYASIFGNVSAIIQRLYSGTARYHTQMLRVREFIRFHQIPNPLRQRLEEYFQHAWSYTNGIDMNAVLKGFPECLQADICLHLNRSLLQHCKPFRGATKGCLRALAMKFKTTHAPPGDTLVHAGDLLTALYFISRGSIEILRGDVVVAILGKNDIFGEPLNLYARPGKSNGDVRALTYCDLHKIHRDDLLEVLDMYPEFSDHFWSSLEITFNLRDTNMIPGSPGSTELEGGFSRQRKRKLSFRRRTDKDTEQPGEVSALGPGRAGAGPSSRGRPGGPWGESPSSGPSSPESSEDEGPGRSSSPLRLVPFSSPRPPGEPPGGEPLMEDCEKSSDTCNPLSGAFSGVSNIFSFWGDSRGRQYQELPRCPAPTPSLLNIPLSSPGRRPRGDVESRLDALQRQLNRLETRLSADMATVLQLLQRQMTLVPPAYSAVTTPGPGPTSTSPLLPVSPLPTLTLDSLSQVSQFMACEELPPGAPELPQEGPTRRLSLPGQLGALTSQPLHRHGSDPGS

Compound	hERG current change (%, negative = inhibition) at 10uM [%]
O=C(CCc1nc(-c2ccccc2)no1)NCc1cccnc1	-18.8
COc1cc(C)ccc1NC(=O)Cc1csc(NC(=O)Nc2ccccc2OC)n1	-1
CCOC(=O)C[n+]1ccc2c([nH]c3ccccc32)c1C.[Br-]	0.495
O=C(Nc1ccc(Cl)cc1)Nc1ccc(Cl)c(Cl)c1	10.9
COc1cccc(CNC(=O)COC(=O)CCCNC(=O)c2ccc(Cl)cc2)c1	-9.21
O=c1[nH]c(COc2ccc(Cl)cc2Cl)nc2ccccc12	12.4
COCCN(C(=O)CNC(=O)c1ccco1)C(C(=O)NC1CCCCC1)c1cccc(OC)c1 (stereo not shown)	3.05
O=C(COC(=O)c1n[nH]c(=O)c2ccccc12)NCc1ccccc1	-7.72
O=C(c1ccoc1)N1CCC2(CC1)Oc1ccc(F)cc1C(=O)C21CC(c2ccccc2)=NO1 (stereo not shown)	-8.73
Cc1coc2c(C)c3oc(=O)c(CCC(=O)NCCCn4ccnc4)c(C)c3cc12	-44.4
c1cncc(CNc2ccc3c(c2)OCO3)c1	-7.08
CC(C)NC(=O)C1CCN(C2CCN(CC3CC=CCC3)CC2)CC1 (stereo not shown)	-15
O=C(c1ccc(Cl)cc1)c1c[nH]cc1-c1ccccc1	11.4
CCC(Sc1nc2n[nH]c(C)c2c(=N)n1-c1cc(Cl)ccc1C)C(=O)N1CCOCC1 (stereo not shown)	-0.58
Cc1ncsc1CCOC(=O)c1cccc([N+](=O)[O-])c1.Cl	-21.8
CCCC(=O)Nc1c2c(nn1-c1ccc(OC)cc1)CS(=O)(=O)C2	3.92
CCOC(=O)N1CCN(c2cc(N3CCN(CC)CC3)c(F)cc2[N+](=O)[O-])CC1C (stereo not shown)	-45.9
CC(C)CC(=O)Nc1nnc(S(=O)(=O)Nc2ccccc2)s1	14.8
Cc1ccc(S(=O)(=O)N2CCN=C2c2ccccc2)cc1C	-9.01
CC(C)(C)N1C(=O)[C@H]2[C@@H](c3ccc(Br)cc3)N3C(=O)N(c4ccccc4)C(=O)[C@@]3(C)[C@H]2C1=O	-6.9
Cc1ccc(CNc2nc(C)cs2)cc1	5.74
Cc1c(Br)ccc(NC(=O)CCN2C(=O)C3C4CCC(C4)C3C2=O)c1C (stereo not shown)	-15.6
Cc1ccccc1NC(=O)c1ccc(Cn2cc([N+](=O)[O-])cn2)o1	-21
CC[n+]1c(/C=C/N(C)c2ccccc2)n(-c2ccccc2)c2ccc(-c3nc4ccccc4s3)cc21.[I-]	-81.1
COc1ccc(N2CCN(CCN3C(=O)c4ccccc4C3=O)CC2)cc1	17.6
Br.CCOC(=O)CN=C1CC(C)(C)CC2=C1Sc1ncnc(N(C)C)c1N2	-42.5
CC(C)N(C)CCOC(=O)c1ccc2c(c1)OCCO2.Cl	-8.98
CC(Oc1ccccc1)C(=O)N1CCN=C1SCc1ccccc1F (stereo not shown)	-22.4

Compound	hERG current change (%, negative = inhibition) at 10uM [%]
COc1ccc(C(C(=O)NC(C)(C)C)N(Cc2ccc(C)cc2)C(=O)CCC(=O)Nc2cc(C)on2)cc1 (stereo not shown)	-3.86
CCN(CC)CCN1C2=C(C(=O)CC(C)(C)C2)C(c2cccc(F)c2)C2=C1CC(C)(C)CC2=O	10.7
CCOc1ccccc1NC(=O)C(CC(C)C)NC(=O)C1CCCCC1 (stereo not shown)	-10.2
Cc1cc(C)cc(OCC(=O)N/N=C\c2cn(C)nc2C)c1	-11.7
COc1ccccc1CNC(=O)c1ccccc1OCc1ccc(F)cc1	-10
Cc1ccc(S(=O)(=O)N2CCCCC2)cc1NC(=O)CCN1C(=O)C2CC=CCC2C1=O (stereo not shown)	-18.2
COc1ccc(NS(=O)(=O)c2cc(NC(=O)C3CC3)ccc2N2CCOCC2)cc1	-40.8
COc1ccc(-n2ncc3c2CC(C)(C)CC3NC(=O)c2ccc(OC)o2)cc1 (stereo not shown)	-50.2
CN(C)CC(=O)Nc1nc(-c2ccccc2)cs1	-5.76
CC#CCC(CC#CC)c1nc2ccccc2c(=O)n1N	-1.36
CSc1nccn1C(=O)c1ccccc1[N+](=O)[O-]	18.2
N/C(=N\OS(=O)(=O)c1ccc(Br)cc1)c1ccncc1	-18.1
CCOc1cc(-c2nc3n(c(=O)c2C#N)CCS3)ccc1O	20.6
CCOC(=O)N1CCN(C(=O)CNS(=O)(=O)c2c(C)cc(C)cc2C)CC1	8.18
Cc1noc(C)c1S(=O)(=O)N(CC(=O)NCc1ccccc1)c1ccc(C(C)C)cc1	10.4
Cc1cccc(OCC(=O)NNC(=O)CSc2ncc(C#N)c(N)n2)c1	2.11
O=C(C1=C[C@@H](C2CC2)C[C@@H](OCCCCO)O1)N1CCN(Cc2ccccc2)CC1	0.7
CCC(=O)N1CCN=C1SCc1ccccc1	11.8
COc1ccc2c(c1)C(C)=CC(C)(C)N2S(=O)(=O)c1ccc(Br)cc1	4.42
Br.CCOc1ccc(N=c2scc(-c3ccccc3)n2CCO)cc1	10.8
CC(NS(C)(=O)=O)C(c1cccs1)N1CCN(c2ccccc2F)CC1 (stereo not shown)	6.04
CCOC(=O)CSc1nc2sc3c(c2c(=O)n1-c1ccccc1)CCN(C)C3	12.6
COc1cccc(/C=N/Nc2ncnc(N)c2[N+](=O)[O-])c1OC	3.62
O=C(CCc1nnc(CCCCc2ccccc2)o1)NCCCc1cccnc1	-14.8
COc1cc(SC)ccc1C(=O)Nc1ncc(C)s1	19.6
O=S(=O)(c1ccc(F)cc1)c1nc(-c2ccccc2)oc1N1CCOCC1	-24.5
Cc1ccccc1C(=O)NC(=S)NCCc1ccccc1	-7.87
